Reference: the supplement of paper PMC11417369
± gives the standard deviation of the averaged measurements. The list shows a part of the results.

Test system: PfAP2-I AP2 domain 3 (GST-tagged)
Experiment: gcPBM binding intensity (ln(normalized median fluorescence intensity)); higher = stronger DNA binding
How it was run: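 The binding buffer was 1× PBS containing 1% milk, 0.2 mg/ml BSA, 0.5% salmon testes DNA and 0.03% Triton X-100. In it, GST-tagged P. falciparum DNA-binding domains expressed in E. coli were applied for 1 h to an Agilent 4 × 180k array of primer-extended double-stranded 36-bp intergenic genomic probes plus negative controls. Binding intensity, read with Alexa488 anti-GST antibody and a 488 nm scan, is the highest Masliner-normalised natural-log median intensity across replicate spots of either probe orientation.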

Sequence | gcPBM binding intensity (ln)
TTATTACATATAAAGGAAAATAGCATCTAGATTAAA [XGTACX_negctrl_site435] | 7.54 ± 0.76
TCTTTTTTGAACTAGCGTACATGAAAATATTTATAG [XGTACX_site7359] | 7.83 ± 0.28
AAAAAAAAAAAAAAAAAATACATATACATTTGTGCA [CACACA_negctrl_site1431] | 9.07 ± 0.35
TTTTTATTTATATATAAGGAAAATGCGGTATATATT [CACACA_negctrl_site1770] | 8.12 ± 0.7
ATTTTAAATATGGAATGTACTTAAAAAAAATTTCAT [XGTACX_site5058] | 7.78 ± 0.56
ATTTCTTATTAAATTACACACAAAGTAAATAAATCT [CACACA_site3924] | 7.67 ± 0.46
AATTAAATATTATAAACACACATATAGATTATTTTT [CACACA_site6538] | 7.49 ± 0.44
AAATACATAACTTAAAATTTGTTCATATCTATACAT [TGCATGCA_negctrl_site249] | 7.56 ± 0.71
TATAATAATATGGATTGTACATATATATTTAATTAA [XGTACX_site4327] | 7.57 ± 0.45
TTTTCCTTTTTTTTTACATGCAGATATAGAAAGGTA [TGCATGCA_site106] | 7.96 ± 0.49
TTGTTTTGGATTATCACACATATAATATATACTCAT [CACACA_site4780] | 7.82 ± 0.68
GTAATTTTTTTCTATACACACATATCTATAATATAT [CACACA_site7284] | 8.09 ± 0.6
TACTTATAATTTCAATGTACATATATATAATATCAT [XGTACX_site2424] | 7.72 ± 0.34
TATCACATATTATGATGTACAAGGTTTCTGACTAAT [XGTACX_site2763] | 7.63 ± 0.51
TTTTTATACAACTTATAATACATCTGAAAATATAAA [XGTACX_negctrl_site36] | 7.7 ± 0.2
TTGTCTGACTAATTTTTTTCTGTTTGTACGTTCTTA [GTGCAC_negctrl_site602] | 7.87 ± 0.6
ACAAAATAAATATGAACACACACATTTATGCCTTTA [CACACA_site8346] | 7.55 ± 0.71
ATAATTATACATATTACACACTCTCTTGATCTTTTT [CACACA_site3853] | 7.92 ± 0.64
CATATATAAAAAAACACACACATATTTATATTTATA [CACACA_site6682] | 7.57 ± 0.34
AAAAAAATTTATAAATATTTTATTAATATATTTACC [GTGCAC_negctrl_site690] | 7.61 ± 0.42
CATATTTCTTACATTTGTACTTAATAAAATTAATCA [XGTACX_site7224] | 7.92 ± 0.28
ACACAAAACAAAAAGGTGCTGTATAAATGGGTGTAT [GTGCAC_site9905] | 10.3 ± 0.028

Sequence | gcPBM binding intensity (ln)
AAAATTAATAAATAAACACACATATTTATATTTATA [CACACA_site7266] | 7.3 ± 0.56
TATAAATATAGACACACACACACACCGAAGCGTAGC [CACACA_site6180] | 7.79 ± 0.64
TCGTCACTTTAATATTGTACATATATATATATATAT [XGTACX_site8046] | 9.19 ± 0.45
GATATATATATTCACACACACATGGAAATATATATA [CACACA_site382] | 7.97 ± 0.7
ATATATATATGTGCCAGTACACATGTATACATTATA [XGTACX_site3899] | 9.03 ± 0.11
AATAATTATTTGTATAGTACAATATACAAAAGATGA [XGTACX_site4312] | 7.76 ± 0.46
AAAATTTAAAAATGGACACACACAAAAAATAATACT [CACACA_site7972] | 8.19 ± 0.76
AACTTTTTACAAACAGGTACGCATATATATATATAT [XGTACX_site5081] | 9.29 ± 0.32
CATCCATTATTAATATGTACATATGTATATATATTA [XGTACX_site1318] | 7.75 ± 0.38
CACATACACATACAAACACACATTATATATATATAT [CACACA_site8460] | 9.42 ± 0.52
TTTTTTTTTTTTTTTTTTTTTTTCTTTATTTTTTTT [CACACA_negctrl_site703] | 8.11 ± 0.85
GAAAAAAAAAAAAGGGGTACATTTATTTTATCAATA [XGTACX_site8331] | 7.63 ± 0.56
AATATTGTTCACAAGGTGCTTTTTATTCATACTAAT | 8.86 ± 0.18
TATGTATAACTCAATGCATGCGAAGGACTATTATTT [TGCATGCA_site222] | 7.87 ± 0.86
ACCTCACAAATGAATACACACAAACATATAGATTTA [CACACA_site6862] | 7.92 ± 0.37
ATATATAAAATTATATGTACATATATCTATTTATAA [XGTACX_site3713] | 7.79 ± 0.39
GATTAAAACTTTAACTGTACATAATAATTATCAATC [XGTACX_site5938] | 7.76 ± 0.42
TTTAAAATTTCTTAATGTACGTAATAAAAAAAAAAA [XGTACX_site4037] | 8.02 ± 0.54
TATATGTATTTATATACACACATATTCTTTTTACAC [CACACA_site8320] | 7.81 ± 0.26
AATATTTTGAACAACAGTACTCTTTCTTTCTTTCTT [XGTACX_site7212] | 7.59 ± 0.79
TCCTTTTCATCTTGTAGTACGGAAATGTAGCTCCAA [XGTACX_site8563] | 7.75 ± 0.63
TATATCTACTTAAAAAGTACGTAAATTATAAGCTAT [XGTACX_site6420] | 7.43 ± 0.45

Sequence | gcPBM binding intensity (ln)
TGTGTAAATATGTATACACACATATCTGATCAATAT [CACACA_site7507] | 7.87 ± 0.34
CCTTTTTTATTTACAACACACGTAAAGGTTCAAATA [CACACA_site1741] | 8.28 ± 0.59
GTAAATATTAATAAAAGTACATATGTAGCATATGGA [XGTACX_site5219] | 7.76 ± 0.57
AAAAAACACAGACATACACACAAAAAGGTTATAAAT [CACACA_site4222] | 7.86 ± 0.69
AGAAAAAAAAAAAATGCACACATTTTCATTGTCAGT [CACACA_site1935] | 8.51 ± 0.18
ATATATATATATATGTGTACATATTTTTTTTTTTTT [XGTACX_site3425] | 9.38 ± 0.19
TTAAACATATATTAAGCACACACAAACAAAAAAACA [CACACA_site8816] | 8.935 ± 0.035
TAATTAATCGATTTACGCACATGAACAAAAGCACAT [CACACA_negctrl_site1287] | 9.45 ± 0.13
AACATATTTTTTTGTTGTACTTACAATTATAAGCAT [XGTACX_site3056] | 7.72 ± 0.54
TATACCAAATATATGGGTACACAAATATGTTTATTC [XGTACX_site8932] | 7.7 ± 0.33
TATAAAGCAACTGAAACACACAAATTTTTTTTTTTT [CACACA_site3218] | 7.68 ± 0.31
ATTATTTATTTATGTGTGCGCATGTGTGTAAATATT | 8.95 ± 0.22
ACTATTTTCTTCAAAACATGCACCACATAAACATAA [TGCATGCA_site200] | 9.75 ± 0.23
TAAACACCCATATAAACACACATATAAACACCCATA [CACACA_site5382] | 8.08 ± 0.28
TTTATTTATTTTTAACGTACGCACACATATAAATAT [XGTACX_site4042] | 8.43 ± 0.49
TATTATAAAATATACACATGCAAAAACAAAATTTAC [TGCATGCA_site1051] | 8.06 ± 0.67
TATTTTTAATAAAAACGTACGGAATACAAAAAAAAT [XGTACX_site3477] | 8.17 ± 0.61
TAAAATTTATAAACTACACACATATAAATAGTAATA [CACACA_site7708] | 7.56 ± 0.57
TATATACATTGGTATACATGCATTCTCTTTCATACA [TGCATGCA_site734] | 7.89 ± 0.71
ACAGAAAAAAGACACACACACATAATATACATACAT [CACACA_site6991] | 7.96 ± 0.56
TATATATATATATATACACACACACTAATAAAAAAA [CACACA_site8426] | 9.44 ± 0.22
CTTAGATATAAAAATTGTACATACATATTTTTGACA [XGTACX_site2107] | 7.71 ± 0.3

Sequence | gcPBM binding intensity (ln)
ATTTTTTAAATGAGGCGTACACAAAAATATAATTAC [XGTACX_site7087] | 8.74 ± 0.071
TTTTTTTCGTAAAAAAAAATAATTATTAAATGAAGG [TGCATGCA_negctrl_site212] | 7.86 ± 0.49
AAGAATATATAGGACACACATACAATAATAAATATA [CACACA_site4119] | 7.84 ± 0.34
TATCCTACATTAACAAGTACAAAGAGATCCTACGTA [XGTACX_site4252] | 7.55 ± 0.33
TTTCTCCATATTAAAGTGCATTAATAACAAAAATAA [GTGCAC_site9934] | 11.4 ± 0.81
AACGCCACTTCAATGGCACACACCAATTATTTTTCA [CACACA_site1026] | 8.13 ± 0.52
TCATTCGAATAAATTGCACACATGACATCCGTTGTA [CACACA_site2587] | 8.71 ± 0.34
AAAAAAAAAAAAAATATACACACTAATATATTTTTT [CACACA_site815] | 7.98 ± 0.54
ATATATATATTAATTACACACAAAAAAAAAAAAAAA [CACACA_site1165] | 8.59 ± 0.057
TATTAATAATATAATAGTACTTTCACTGTAAATTTA [XGTACX_site6419] | 7.62 ± 0.49
TATATACAGATATATACACACATATTTATATTTTAT [CACACA_site7734] | 7.68 ± 0.35
GTATAGAGAAAAAACTGTACTTTATATAAATATTTA [XGTACX_site3972] | 7.53 ± 0.3
ATATATATAAAATAAAGTACCCGTAAAACCTATATG [XGTACX_site6937] | 8.12 ± 0.54
AAAAAAAAAAAAAAAAAATAATAAAAAATAAAAAAA [GTGCAC_negctrl_site341] | 8.67 ± 0.31
TAATTATAAAAATAAAACAACCAAATTTGTTATATA [CACACA_negctrl_site750] | 7.24 ± 0.5
TAATTTATAAATAATTGTACATAGTTTATTTAGATT [XGTACX_site4599] | 7.5 ± 0.5
GAAAGGAAAAGTTGAACACACAAAGTAAACTATAAG [CACACA_site3535] | 7.63 ± 0.78
TATGTTAATCCTATTTGTACATATAATCGAATTAAA [XGTACX_site7090] | 7.42 ± 0.24
GACGACTATATTAATTGTACTCAATTTAAGCATAAT [XGTACX_site2750] | 7.78 ± 0.44
GCCATTAATTTATACACACACATTAAAATTTTTTAT [CACACA_site4575] | 8.3 ± 0.35
TAATGAAGATATATAACACACAAAAGTTATAAATAT [CACACA_site6678] | 7.68 ± 0.64
ATATATAATAATATATGTACATAATATTTTTTTTTT [XGTACX_site1941] | 7.63 ± 0.28
